# Experimental data reported in the supplement of paper PMC3334620.
# The full ranking holds about 33,000 sequences; the median of “E-score (-0.5 to 0.5)” is about -0.017, and the highest 2% start at about 0.3. The list shows a part of the results.
# Target: T1, Sut1 (UniProt P53032)
# T1 sequence: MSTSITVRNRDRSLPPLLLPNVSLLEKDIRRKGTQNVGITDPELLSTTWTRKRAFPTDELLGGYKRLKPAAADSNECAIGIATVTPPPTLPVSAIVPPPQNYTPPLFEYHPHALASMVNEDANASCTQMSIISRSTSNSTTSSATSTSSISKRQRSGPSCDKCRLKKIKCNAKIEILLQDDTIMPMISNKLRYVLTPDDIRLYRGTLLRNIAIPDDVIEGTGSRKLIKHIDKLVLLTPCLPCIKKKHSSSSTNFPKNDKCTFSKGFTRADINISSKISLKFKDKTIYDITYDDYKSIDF
# Experiment: PBM E-score (8-mer binding enrichment) (E-score (-0.5 to 0.5)); higher = stronger / more preferred TF binding; most listed sequences are background and not binding sites
# Details: protein concentration: 200 nM; construct: GST-full length
# Summary of the method: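 GST-tagged yeast TFs (full-length or DNA-binding domain) were made by PURExpress in vitro transcription/translation and applied at about 100-200 nM to universal all-10-mer Agilent arrays. The arrays were made double-stranded by primer extension, on fresh or once-stripped slides. Bound protein was detected with fluorescent anti-GST, and scans were normalised with masliner. Each ungapped eight-base word, pooled with its reverse complement, received an E-score (modified Wilcoxon-Mann-Whitney statistic) from the Universal PBM Analysis Suite.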
row,Sequence,PBM E-score
1,ATCTCGGC,0.13
2,ACAATAAG,0.139
3,GACAAACC,0.0113
4,CAAAAAAC,0.221
5,ACTTGGGG,-0.203
6,GCAACTGC,0.145
7,CCAGAGAA,-0.186
8,AATGCCCA,-0.116
9,TACAGAGA,-0.0918
10,CGTTCCAG,-0.163
11,ACACTGGC,-0.14
12,CGCCAGCC,-0.103
13,GGGAAGCA,-0.15
14,CGGCGGAC,0.177
15,CTTCTTGC,0.0337
16,ACGCCCCA,-0.0312
17,CGCGGCCG,-0.252
18,GTGCTTCA,0.0662
19,AGTATAGA,0.124
20,CCTTCTAC,-0.116
21,AAGACAAT,0.132
22,AATGTACG,0.0713

row,Sequence,PBM E-score
1,ACAGTTCC,0.14
2,ACTACTAC,0.133
3,ATCGTCTC,0.00275
4,TGCATGCA,0.158
5,AGCTCGTA,-0.053
6,CGGGTGTA,0.0214
7,TACAGCGA,-0.145
8,CTTGTACC,-0.00745
9,GCTTTCCC,-0.202
10,AAGGTTAC,0.0475
11,ATTCAATG,0.0697
12,AAATGGCT,-0.0329
13,GCCCGGCA,-0.106
14,ATGGGAGG,-0.213
15,CTCAACGA,-0.123
16,ATGACGCA,0.0733
17,GAATCCTC,-0.19
18,CCCAGCTC,0.03
19,CAGAGTCC,0.17
20,CGTGGCAC,-0.0707
21,ACGTACAA,0.101
22,CTTTAGGC,0.045

row,Sequence,PBM E-score
1,CCCTAGCC,-0.265
2,AAGGTCGG,0.0135
3,CCCACTAA,-0.054
4,ACACATCT,0.0842
5,AGCTTCTA,0.155
6,AATAAGTG,0.0224
7,AAGTAGAG,-0.116
8,GGGCTGAC,-0.131
9,ACGGGTAC,-0.197
10,CTATTACC,0.00941
11,CCAGTGGC,-0.265
12,TAAAATGA,0.251
13,ACCGACTC,-0.0026
14,CGTTCGAC,-0.0661
15,TACCAGAA,0.155
16,AGAAATGA,0.254
17,ATGACCCC,-0.0869
18,CGAACATA,0.196
19,CTATGTGA,0.097
20,AGGTTAGC,-0.164
21,AGAACACA,-0.0911
22,TAGACCAA,0.089

row,Sequence,PBM E-score
1,GCACCTAC,-0.331
2,GGATCCCA,-0.0879
3,CAGTCAAG,-0.195
4,ATTGCGCC,0.0208
5,AGCGGCTA,-0.0161
6,TCAATGAA,-0.0127
7,AGACATAG,0.116
8,ACTTGGAC,0.0102
9,CCGCTGAG,-0.149
10,GGGGGGAC,-0.435
11,ACCTGCCG,-0.186
12,ACCTTCTC,0.0652
13,CAGTGATG,-0.202
14,AAAAAATC,0.21
15,GTCAGGCA,-0.16
16,ATCTACGG,0.0683
17,CGGATACG,-0.0139
18,ACAAAGAG,-0.063
19,CAGTCGGC,0.0364
20,CCTCGTAG,-0.185
